# Test results taken from paper PMC12136788.
# The other results are listed elsewhere or left out.
# T1: UNK ZnF1-3 (human, UniProt Q9C0B0 31-174)
# T1 sequence: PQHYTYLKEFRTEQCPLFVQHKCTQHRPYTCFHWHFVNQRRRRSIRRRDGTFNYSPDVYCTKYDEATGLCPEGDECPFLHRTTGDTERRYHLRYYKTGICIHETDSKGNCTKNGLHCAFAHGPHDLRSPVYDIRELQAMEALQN
# B1: chr5:141096593:141096594:-_ENSMUSG00000036565_ENSMUST00000042661|mus_hu|FALSE|FALSE (ssRNA)
# RNA: GGGAGUUCUACAGUCCGACGAUCUUUUUAAAAUUUAUUUUAAAACAUGAAACCCAAGCUGAAUAGAAACCACAGAAAUUACAUUGACGAGAUUUUUAGUAUUUGCCAAGAAAAAAAGCCCCCAAAGAAAUAAAAAUCAGCCCCCAACAGAGGAUUGAGCAUCA
# B2: chr5:33459820:33459821:+_ENSG00000113407_ENST00000502553|hu_mus|motif|central (ssRNA)
# RNA: GGGAGUUCUACAGUCCGACGAUCCCAGAGCCGGCUAUUGAAGAUGUUGGGAGUGACGACCUCCUGGAACCCUCUUUUCCGGUAUUCACUCCUGAUAAAUUCCAUUAGUGUAUUAUAAAUGUAGGCUCCUUUGGGCAGGAAAAACAACAGAGGAUUGAGCAUCA
# B3: chr7:102939105:102939106:+_ENSG00000105819_ENST00000453466|hu_hu|FALSE|FALSE (ssRNA)
# RNA: GGGAGUUCUACAGUCCGACGAUCUCCAACUGUGCAUGUUGAGAGCCCAGAGUCUUCCGAAGCUACUCUGAGUCCACUUUCUAAACAUGUUACUCUUGUUUCAGGAACAUUCAGAACAACUUGGGUAGCAGCCUGUGUACUUCUCAACAGAGGAUUGAGCAUCA
# B4: chr16:94651144:94651145:+_ENSMUSG00000040785_ENSMUST00000117648|mus_hu|mus_mus_mus_hu_True|8_98 (ssRNA)
# RNA: GGGAGUUCUACAGUCCGACGAUCAUUUUCUUGAAUCAAGUGACCGAUAACAUAGUCCACUGCUUCAUUUAGAAAAUUUCUGCUAGAAAAACAGGUUGUAUAGUCUUCUGUGCUCAAAACUUUCCAAGAGAGCAGCUCUUUGAGCAACAGAGGAUUGAGCAUCA
# B5: chr10:34671499:34671500:-_ENSG00000148498_ENST00000340077|hu_mus|FALSE|FALSE (ssRNA)
# RNA: GGGAGUUCUACAGUCCGACGAUCGAUGCUGAAUCCCAGUCCUUCUGUACCUUUCUUAAGCUGGAUGUUGAGCCUCUUGCCUACUUUCUUCGUGUUGUACACACUGCCUACGUUGGUACUAAGCACACUGGGUGGAGCCAAGGCCAACAGAGGAUUGAGCAUCA
# B6: chr2:5814250:5814251:-_ENSMUSG00000025816_ENSMUST00000102981|mus_hu|mus_mus_mus_hu_True|18_78 (ssRNA)
# RNA: GGGAGUUCUACAGUCCGACGAUCUUCCUUUCCGGUUUCUGAAUUUCUGGUAGAACUGCACAGAAAGGUUUGAUAACUUCUAAAAAUUUGAUGCCCAUGGCUGCUGCUGGGGAGGCCCGGCGGGCACCCGCGGCCUCGGCGCUGCAACAGAGGAUUGAGCAUCA
# B7: chr4:95690885:95690886:+_ENSMUSG00000028572_ENSMUST00000156910|mus_mus|mus_mus_mus_hu_False|1_38 (ssRNA)
# RNA: GGGAGUUCUACAGUCCGACGAUCUUUAGAAAAUGUUAAAUACCAUGCUAAAAUAUUUUCAAAGGCUUAUUUUAUUUUACCAGAAGUCACAGGCAAGCAGACACCAUAAGAAUAUAUGAAAAUGAAACUCAACAAUAAAAUGUACAACAGAGGAUUGAGCAUCA
# B8: chr14:57575763:57575764:+_ENSMUSG00000021945_ENSMUST00000022511|mus_hu|motif|central (ssRNA)
# RNA: GGGAGUUCUACAGUCCGACGAUCCACUGUUUUCAGGCCAAAAUACUUAGUGUUAAAGUAGAACAGUGUAUUCAGAAGAGCGGCUGGAGAGUGUGAUCCUAGUUGUUUUAUCCUCCAGAGAUAGUCUUCUUCAACUCGAGAGAACAACAGAGGAUUGAGCAUCA
# B9: chr20:60963365:60963366:+_ENSG00000171858_ENST00000343986|hu_hu|motif|central (ssRNA)
# RNA: GGGAGUUCUACAGUCCGACGAUCCGCACGGUAAAGUCCACGAUGUCCCGAAGUGAUGAGCAAAGCCCAGGGAAACACUCACCAUCCGGCGAAUGGCCCCGCAGAUAGCAUAAGUUUUAAACUGGCCAUUAAACCUGCCUGUGACAACAGAGGAUUGAGCAUCA
# B10: 118619289_118619409_1883_CDS_ENSG00000135090_ENST00000392533|human|control|control (ssRNA)
# RNA: GGGAGUUCUACAGUCCGACGAUCAGCCUUCAGCUUGUUCUCCAGGGCGAUCAGCUGCUUCUGGUGCUGGCGCCGCAUCCGCUUAUAACCUGACAUCUGUUCCCGCAACUCGUUCUCCUGCUCAUGCUCAUGGAUCUGUCGUGUCAACAGAGGAUUGAGCAUCA
# B11: 15618368_15629092_1094_CDS_ENSG00000151779_ENST00000281513|human|control|control (ssRNA)
# RNA: GGGAGUUCUACAGUCCGACGAUCCUCAGUAGAGAGCCUCCAAUCAGGAUUAAGGUCAUCAUAGCCUGGCUGCUCAUUUUGACCCCAUUCCCCUUGUUGCUUCAGAGAUGGAAUCGCCCAGAUGCUCAGUUUCCCUGAGAAGUGCAACAGAGGAUUGAGCAUCA
# B12: chr12:16048344:16048345:+_ENSG00000023734_ENST00000419869|hu_hu|hu_hu_hu_mus_True|38_78 (ssRNA)
# RNA: GGGAGUUCUACAGUCCGACGAUCAGAUCGUCCAUAAGUAAUAACCAAAAUCUCUCCCUCAGGAAUAUACUCCAUGCUGCUAACAGACAUAUUAAAAUUUAGAGAUUUCACUUCUGUCAUUGUGGCAUGAUCCCAGAGCCGAACCAACAGAGGAUUGAGCAUCA
# B13: 130452956_130454814_1383_CDS_ENSG00000196455_ENST00000356763|human|control|control (ssRNA)
# RNA: GGGAGUUCUACAGUCCGACGAUCGUGAAUCAUCUGAGUUACCAAUUCUCUGAUACUGUGAUCUUCAAUUUUAUUUAGCACUUGUUCAGGGAAAAAAUGUCCAUUUCUAUAAGCCAAAAGUUGAGAGAGAUCAAAUAAUGGUACCAACAGAGGAUUGAGCAUCA
# B14: chr9:136227202:136227203:+_ENSG00000148291_ENST00000371964|hu_hu|FALSE|FALSE (ssRNA)
# RNA: GGGAGUUCUACAGUCCGACGAUCCUCAUCAGUGGCCUUCUCUCUUGGGGGCUUUGCCUUCUCAUCCUCUUUGUCUGUCAAAAAGUCAUCAGUGCCAUCCCCAUCCUCCGUGCUUCCAAGGUCCUUUCUGGUGAAUAGCUCAGGCAACAGAGGAUUGAGCAUCA
# B15: chr16:92112057:92112058:+_ENSMUSG00000039680_ENSMUST00000047429|mus_mus|FALSE|FALSE (ssRNA)
# RNA: GGGAGUUCUACAGUCCGACGAUCGCCGUCACACUCUUUUACUUCCUGGGUCAGAGGGUGUUUCACAAUAUUUGGUCUAACCACGUCAAUGUCUCGCGCCAAGUGUUCCAGUAUGUUCUCCACAGCACUUGUCGGAGCAUAAAACAACAGAGGAUUGAGCAUCA
# B16: chr2:76468371:76468372:-_ENSMUSG00000002731_ENSMUST00000002808|mus_mus|FALSE|FALSE (ssRNA)
# RNA: GGGAGUUCUACAGUCCGACGAUCUACCAGGAGACAUUUAAAUCUGGAAAGUUGACGGAAUCUGAAGAGAUUUGGAAAGGACACACAGACAUACAUUACAGUAAACAUUUUGCUUGGAAAGAAGGGCGAGGGAAACUUCUUUGCCAACAGAGGAUUGAGCAUCA
# B17: 118282969_118287507_3832_CDS_ENSMUSG00000005102_ENSMUST00000005233|mouse|control|control (ssRNA)
# RNA: GGGAGUUCUACAGUCCGACGAUCUUGCAAAUCCCCCUUCUGCUCAAUGAACUUGUAGAGUCUACACAGGCUAUUAGAAGACAAGGACAGGUUACAGAAUUUAGCUUCCACUUCUCUCCUAGUCAGCUUCUCUGUCACAGCAUCCAACAGAGGAUUGAGCAUCA
# B18: chr16:94664741:94664742:+_ENSMUSG00000040785_ENSMUST00000117648|mus_hu|mus_mus_mus_hu_False|8_18 (ssRNA)
# RNA: GGGAGUUCUACAGUCCGACGAUCUGGUACUGAUCUUGGUAGCUGAUAUUCAGGAGAAAGGCUGGCCAAGGGUGUAUAUAUGCUGGUGUACUGGGGCAAACCUGGUAACACGUUUAUGUACGCUGGUCGCUGGGUGAUGAUAUCCAACAGAGGAUUGAGCAUCA
# B19: chr8:95500983:95500984:-_ENSG00000164944_ENST00000437199|hu_hu|hu_hu_hu_mus_True|48_48 (ssRNA)
# RNA: GGGAGUUCUACAGUCCGACGAUCAGAACACAUCUAUCGAGUAAAGGACCGUACAUGACGGCCUCUACCACUGCCUCCACUAACAAAACUUUCCUCUGAGCCUCCACUGCCGCUAUUUGUACUAGCCCAGGACGGUCCCAGGCCCAACAGAGGAUUGAGCAUCA
# B20: 196581701_196592893_2262_CDS_ENSG00000196950_ENST00000359634|human|control|control (ssRNA)
# RNA: GGGAGUUCUACAGUCCGACGAUCUGCAAAAUCUCCUAAUUCAUGUGGCAGUUCAUGACAGAAGACGGCUAUAGAAGUACUGAUUCCUCCUGUCAAUCCAGCACUGAAAGCUGCACCAAUUGCGAGCCCAUCACUGAAGUUGUGCAACAGAGGAUUGAGCAUCA
# B21: chr10:133753640:133753641:+_ENSG00000175470_ENST00000482010|hu_hu|FALSE|FALSE (ssRNA)
# RNA: GGGAGUUCUACAGUCCGACGAUCAGUUUUAUCAUUUGUAGACAGUAGAAAAUGAGCAGCAUUCUGUUGUGGUAACCACCUAAUUUUAUUAAUUUUUUCCUCAAUUUCUAGACUUUUCAAAUAGUCAAACUCCGGUUCAUGACUCAACAGAGGAUUGAGCAUCA
# B22: 35547811_35555593_947_CDS_ENSG00000101347_ENST00000262878|human|control|control (ssRNA)
# RNA: GGGAGUUCUACAGUCCGACGAUCCUUUAUAAAGCAAAUAUCUUCUUCAGGGAUGAGACCAUAUUGUUCCAUGACAGGCUUAAUUCCAUUAGAAUUAAUAAGGUGCUCAAACAUCAUAACUGAGCCUUGUUCAUGCGUCCAUUUCAACAGAGGAUUGAGCAUCA
# Molecular target: T1, UNK ZnF1-3
# Assay: nsRBNS (natural sequence RNA bind-n-seq); RBNS binding buffer (assumed for nsRBNS): 25 mM Tris pH 7.5, 150 mM KCl, 3 mM MgCl2, 0.01% Triton X-100, 500 ug/ml BSA, 20 U/ml SUPERase-In, 4 C; UNK is unkempt and MSI1 is Musashi-1; names of the RNAs are library labels; protein concentration not given here; high values mean tight binding
row,Binder,binding signal
1,B1,2.7 enrichment R
2,B2,1.27 enrichment R
3,B3,0.572 enrichment R
4,B4,0.707 enrichment R
5,B5,0.675 enrichment R
6,B6,1.06 enrichment R
7,B7,3.08 enrichment R
8,B8,1.41 enrichment R
9,B9,1.18 enrichment R
10,B10,0.736 enrichment R
11,B11,1.34 enrichment R
12,B12,1.44 enrichment R
13,B13,0.937 enrichment R
14,B14,0.768 enrichment R
15,B15,0.651 enrichment R
16,B16,1.65 enrichment R
17,B17,1.19 enrichment R
18,B18,0.819 enrichment R
19,B19,1.08 enrichment R
20,B20,1.09 enrichment R
21,B21,1.52 enrichment R
22,B22,1.15 enrichment R
